Measured values: PubChem BioAssay AID1347417 (National Center for Advancing Translational Sciences (NCATS), 2020)
Among all 120,000 compounds or so, about 5,300 (4.4%) were called active. Inconclusive results, whose numbers are uncertain, are shown with a selection of clear calls. The call rests on the fitted dose curve; in most records, active means well fitted inhibition curve with a large enough effect; inconclusive means small, poorly fitted or top-dose-only effect; inactive means no such curve, though single readings can be large or run the other way. Where the call is inconclusive, the potency comes from a doubtful curve fit.

experiment: qHTS Primary assay for Inhibitors of Plasmodium falciparum Dd2 growth in vitro; further: nearly all actives have a fitted effect of over 65% in size;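 on activity, negative = inhibition: plate controls were DMSO vehicle for no effect and reference drug for full effect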; conditions: P. falciparum Dd2 growth, SYBR Green, 72 h; activity, negative = inhibition: at 28.9 µM (top of the series) unless noted; series mostly up to 28.9 µM
Procedure, shortened: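 Infected erythrocytes (Dd2, 0.3% parasitemia, 2.5% hematocrit final) are added to compound in RPMI-1640/Albumax II medium, grown 72 h at 37C in low oxygen, then lysed with saponin/Triton-X containing SYBR Green and read by fluorescence.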
Potency means the concentration at half of the fitted maximal effect; tags describe the fitted curve by direction and shape.

| Structure (SMILES) | Potency | activity, negative = inhibition | outcome |
| --- | --- | --- | --- |
| COCCCNC(=O)Cc1cccn1-c1ccc(F)cc1 | inconclusive: 17.8 µM [inhibitor, single point] | – | – |
| CN(C)C[C@@H]1CN(C)C[C@H]1NS(=O)(=O)c1ccc(Cl)cc1 | inconclusive: 3.16 µM [inhibitor, full curve, poor fit] | – | – |
| Cc1cc(Cl)ccc1S(=O)(=O)N(C)CC1CCOCC1 | – | inactive: 15% | – |
| Cc1cccc(CN2CCCOCCNC(=O)CC2)c1 | inconclusive: 17.8 µM [inhibitor, single point] | – | – |
| O=C(COc1ccc(Cl)cc1)NCCc1csc(-c2ccc(C(F)(F)F)cc2)n1 | inconclusive: 17.8 µM [inhibitor, single point] | – | – |
| COc1ccc(NC(=O)c2sc3nc(C)c(C(=O)Nc4ccc(C)cc4C)c(-c4sccc4C)c3c2N)cc1 | active: 3.16 µM | – | – |
| CC1=C[C@@H](CN2CCN(c3ccccn3)CC2)[C@H](C(C)C)C[C@H]1Cc1nnc(-c2ccc(C)cc2)o1 | inconclusive: 3.98 µM [inhibitor, single point] | – | – |
| COc1ccc(-c2nc(-c3nnn4c3COC(c3ccc(C)cc3)C4)no2)cn1 (stereo unspecified) | – | – | inactive |
| CCn1cc(S(=O)(=O)N2CCC(Cc3ncc(C)n3Cc3ccc(F)cc3)CC2)cn1 | – | inactive: -31.6% | – |
| COc1ccccc1-c1cc(C(F)(F)F)nc(S(=O)(=O)CCCC(=O)Nc2ccccc2F)n1 | inconclusive: 10 µM [inhibitor, single point] | – | – |
| COc1ccc(Cn2c(SCc3ccc(C(=O)NC4CCCCC4)cc3)nc3cccnc32)cc1 | inconclusive: 7.94 µM [inhibitor, partial curve] | – | – |
| CC(=O)Nc1ccc2nc(SCCOc3ccc(C)cc3)sc2c1 | – | – | inactive |
| CC(C)c1noc(-c2cn(C3CCN(C(=O)c4ccc(Cl)s4)C3)nn2)n1 (stereo unspecified) | inconclusive: 3.98 µM [inhibitor, single point] | – | – |
| CC(C)CN1C(=O)CO[C@H](c2ccc(NC(=O)C(C)C)cc2)[C@H]1CO | inconclusive: 5.62 µM [inhibitor, single point] | – | – |
| O=C(Nc1cccc(C(F)(F)F)c1)c1cnc2c(c1)N(Cc1ccccc1)CCC2 | – | inactive: -17.8% [at 44.1 µM] | – |
| CCC(CC)C(=O)N[C@@H](Cn1cc(-c2ccccc2F)c(=O)[nH]c1=O)C(=O)O | – | inactive: -2.36% [at 44.1 µM] | – |
| C=CCNc1nc(C)nc2c1CCN(C(=O)CNS(C)(=O)=O)CC2 | – | inactive: -10.5% | – |
| CS(=O)(=O)N1CCc2ccc(C(=O)NCCN3CCc4ccccc4C3)cc21 | – | inactive: -25.6% | – |
| CCc1ccc(CN(Cc2ccco2)c2cnc(S(C)(=O)=O)nc2C(=O)Nc2ccc(C)c(Cl)c2)cc1 | inconclusive: 17.8 µM [inhibitor, single point] | – | – |
| CCCCCn1c(=O)[nH]c2cc(C(=O)N3CCN(c4ccc(OC)cc4)CC3)ccc2c1=O | inconclusive: 17.8 µM [inhibitor, single point] | – | – |
| Cc1ccc(NC(=O)N2CCC(Oc3ncccc3C(=O)N3CCOCC3)C2)cc1F (stereo unspecified) | – | inactive: 8.9% | – |
| OC1(CNCc2csc3ccc(Cl)cc23)CNCCOC1 (stereo unspecified) | inconclusive: 10 µM [inhibitor, single point] | – | – |

| Structure (SMILES) | Potency | activity, negative = inhibition | outcome |
| --- | --- | --- | --- |
| CC(C)(C)CC(=O)N1CC[C@H]2NC(=O)N(c3ccc(Oc4ccccc4)cc3)C(=O)[C@H]21 | inconclusive: 12.6 µM [inhibitor, single point] | – | – |
| CSc1ccc(CN2CCN(Cc3ccccc3F)C(CCO)C2)cc1 (stereo unspecified) | inconclusive: 11.2 µM [inhibitor, single point] | – | – |
| CCCN(CCC)CCNC(=O)CS(=O)Cc1nc(-c2ccc(OC)c(OC)c2)oc1C (stereo unspecified) | inconclusive: 17.8 µM [inhibitor, single point] | – | – |
| C[S+](=O)([O-])Nc1cccc(Nc2ncc(-c3cccc(F)c3)c3c2OCC3)c1 | inconclusive: 31.6 µM [inhibitor, single point] | – | – |
| COCCNC(=O)c1cc(-c2ccc(OC)cc2)nc2c1c(C1CCCN1)nn2C (stereo unspecified) | inconclusive: 17.8 µM [inhibitor, single point] | – | – |
| COc1cc(SC)ccc1C(=O)N[C@H]1C[C@@](O)(C(=O)N[C@@H](Cc2cccs2)C(N)=O)C[C@@H](O)[C@@H]1O | – | inactive: 2.95% | – |
| CN(C)CCCNC(=O)CC1Sc2ncccc2N(C)C1=O (stereo unspecified) | – | inactive: -12.6% | – |
| CCOc1cc(CNCCSc2nnnn2C)ccc1OCc1ccc(Cl)cc1Cl | inconclusive: 10 µM [inhibitor, single point] | – | – |
| C[S+](=O)([O-])N1CC2(CCN(C(=O)CCC(=O)O)C2)Cc2ccccc21 (stereo unspecified) | – | inactive: -5.55% | – |
| COC[C@@H]1CN(C(=O)c2cccc3[nH]ccc23)C[C@H]1c1nc(C)no1 | – | inactive: 30% | – |
| CCOc1ccc(C2c3[nH]c4ccccc4c3CCN2C(=O)CSc2ccccc2)cc1 (stereo unspecified) | inconclusive: 0.891 µM [inhibitor, full curve, poor fit] | – | – |
| O=C(NCc1ccco1)[C@@H]1Cc2nc[nH]c2CN1Cc1ccc(C(F)(F)F)cc1 | – | inactive: -9.48% [at 44.1 µM] | – |
| CN(Cc1ccccc1)C(=O)C(=O)Nc1ccc2nc3n(c(=O)c2c1)CCCCC3 | – | – | inactive |
| CC(C)n1cc(CN2CCC3(CC2)CC(C(=O)N2CCOCC2)N(C)C3)c2ccccc21 (stereo unspecified) | inconclusive: 7.08 µM [inhibitor, partial curve, poor fit] | – | – |
| CCN1c2cc(C(=O)N3CCN(c4ccc(C)cc4)CC3)ccc2C(=O)N2CCCCC21 (stereo unspecified) | – | – | inactive |
| Cc1ccc(NC(=O)N2CCCC(Cn3c(C)nc4cccnc43)C2)cc1F (stereo unspecified) | – | inactive: -28.8% | – |
| O=[S+]1([O-])NCC2(CCN(CC3CCCCC3)CC2)Oc2ncccc21 | inconclusive: 7.94 µM [inhibitor, partial curve] | – | – |
| COC1CN(C2CCN(C(=O)CCc3c[nH]c4ccccc34)CC2)C12CCOCC2 (stereo unspecified) | inconclusive: 10 µM [inhibitor, single point] | – | – |
| COc1cccc(-c2cn3c(n2)N(C(=O)Cc2cccs2)CCC3)c1 | inconclusive: 12.6 µM [inhibitor, single point] | – | – |
| Cc1nc(CN2CCN(C(=O)c3cnc(-c4cccnc4)nc3)CC2)no1 | – | inactive: 3.91% | – |
| Cc1cccc(S(=O)(=O)c2cn(Cc3ccc(F)cc3)c3cc(N4CCCCC4)c(F)cc3c2=O)c1 | inconclusive: 17.8 µM [inhibitor, single point] | – | – |
| C[C@]1(CO)[C@H]2Cc3sc(NC(=O)c4cccc(F)c4)nc3[C@@H](CC(=O)N3CCCCC3)[C@]2(C)CC[C@H]1O | inconclusive: 4.47 µM [inhibitor, partial curve, poor fit] | – | – |

| Structure (SMILES) | Potency | activity, negative = inhibition | outcome |
| --- | --- | --- | --- |
| COc1ccc(Cl)cc1NC(=O)CN(c1cccc(C)c1C)S(C)(=O)=O | inconclusive: 17.8 µM [inhibitor, single point] | – | – |
| Cc1cccc(CC(=O)N2[C@H]3CC[C@@H]2c2cnc(-c4ccccc4)nc2C3)c1 | inconclusive: 3.98 µM [inhibitor, partial curve, poor fit] | – | – |
| COc1ccc2[nH]c3c(c2c1)CCNC31CCN(C(=O)c2ccco2)CC1 | inconclusive: 7.08 µM [inhibitor, partial curve, poor fit] | – | – |
| CCc1ccc(C2N=C(N)Nc3nc4ccccc4n32)cc1 (stereo unspecified) | inconclusive: 14.1 µM [inhibitor, partial curve, poor fit] | – | – |
| Cc1ccc(-n2ncc(C(=O)NCCc3ccsc3)c2C2CCN(C(=O)OC(C)(C)C)CC2)c(C)c1 | inconclusive: 11.2 µM [inhibitor, single point] | – | – |
| CNc1nccc(N2CCC(CC(=O)NCCCN3CCC(C)CC3)CC2)n1 | inconclusive: 17.8 µM [inhibitor, single point] | – | – |
| Cc1cc(N2CCC3(CCCN(CC4CCC4)C3=O)C2)nc2ccccc12 (stereo unspecified) | inconclusive: 12.6 µM [inhibitor, partial curve] | – | – |
| CC(=O)N1CCC(C(=O)N2[C@@H]3CC[C@H]2CC(NC(=O)c2ccc(F)cc2)C3)CC1 (stereo partly specified) | – | inactive: -7.29% | – |
| CN(CC1(CO)CCC1)C(=O)C1CCC(=O)N(CCc2ccc(Cl)cc2)C1 (stereo unspecified) | – | inactive: -14% | – |
| O=C(c1ccc(Cl)cc1)N1CC2(CCCN2CC2CC2)Cc2ccccc21 (stereo unspecified) | inconclusive: 4.47 µM [inhibitor, partial curve] | – | – |
| O=C(O)COc1ccc(-c2nccc3c2C(=O)N(Cc2ccccc2)CC(CNC(=O)c2ccc(F)cc2)O3)cc1 (stereo unspecified) | inconclusive: 0.199 µM [inhibitor, full curve, poor fit] | – | – |
| CCn1c(=O)c(=O)n(CC)c2cc(N3CCCCC3)c(NC(=O)c3ccc(OC)c(OC)c3)cc21 | inconclusive: 0.794 µM [inhibitor, full curve, poor fit] | – | – |
| Cc1ccc2sc(N(CCCN(C)C)C(=O)c3ccco3)nc2c1C | active: 8.91 µM | – | – |
| Cc1[nH]nc(CCC(=O)N2CCC3(CCCN(CC(C)(C)C)C3)C2)c1C (stereo unspecified) | inconclusive: 11.2 µM [inhibitor, single point] | – | – |
| c1ccc(-c2ccc3ncc(Nc4ccncc4)n3n2)cc1 | inconclusive: 8.91 µM [inhibitor, single point] | – | – |
| CCCNC(=O)N1CCC(Oc2ncccc2C(=O)N(C)C)C1 (stereo unspecified) | – | – | inactive |
| CC1=C(C(=O)Nc2cc(Cl)ccc2C)C(c2ccccc2F)n2ncnc2N1 (stereo unspecified) | – | inactive: 10.1% | – |
| Cc1cc(C)cc(C(=O)N2CCCN(c3cc(-c4ccc(Cl)cc4)[nH]n3)CC2)c1 | inconclusive: 10 µM [inhibitor, single point] | – | – |
| O=C(CSc1nc2c([nH]c3ccccc32)c(=O)n1-c1ccc(Cl)cc1)NCc1ccccc1 | inconclusive: 17.8 µM [inhibitor, single point] | – | – |
| Cc1nn(-c2ccccn2)c(C)c1[C@@H]1C=C[C@@H](NC(=O)CCCC(=O)O)C1 | – | inactive: 22.3% [at 44.1 µM] | – |
| Cc1cccc(CC(=O)N2CCCCC2c2noc(COc3ccc(F)cc3)n2)c1 (stereo unspecified) | inconclusive: 11.2 µM [inhibitor, single point] | – | – |
| COCCNc1nc2cc(-c3nc(-c4cccnn4)no3)ccc2n1C | active: 6.31 µM | – | – |
